# Measured values taken from PubChem BioAssay AID2101 (National Center for Advancing Translational Sciences (NCATS), 2009).
# The campaign covered roughly 330,000 compounds. About 300 (0.091%) were called active. The inconclusive results got no clear call from the source; some entries with a clear call stand among them for comparison. Calls follow the shape of the dose curve; as a rule, active = well fitted inhibition curve with a large enough effect; inconclusive = small, poorly fitted or top-dose-only effect, or effect the other way, or another doubt; inactive = no such curve, though single readings can be large or run the other way. No potency is given beside an inconclusive call; the fits are too rough.
# Molecular target: Lysosomal acid glucosylceramidase (Homo sapiens) (UniProt P04062)
# Experiment: qHTS Assay for Inhibitors and Activators of N370S glucocerebrosidase as a Potential Chaperone Treatment of Gaucher Disease;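 as to activity change, negative = inhibition: 0% = full enzyme activity and -100% = no enzyme basal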
# Details: N370S GC spleen homogenate, 4MU-glucoside fluorescence; activity change, negative = inhibition: at 59.4 µM (top of the series) unless noted
# Potency is read from the fitted curve at half-maximal effect.
Structure (SMILES),Potency,"activity change, negative = inhibition"
O=C(CCNS(=O)(=O)c1ccc(Br)s1)N1CCN(c2ccccc2)CC1,"inconclusive [inhibitor, partial curve, poor fit]",–
CCOC(=O)C1=C(COC(=O)c2cc(OC)c(OC)c(OC)c2)NC(=O)NC1C (stereo unspecified),"inconclusive [inhibitor, single point]",–
Cc1ccc(CNC(=O)CN(C(=O)C2(C)CC(=O)N=C3C=CC=CN32)c2cc(C)ccc2C)cc1 (stereo unspecified),"inconclusive [activator, single point]",–
COc1ccc(OC)c(/C=N/NC(=O)CC(=O)NC2CCCCC2)c1,"inconclusive [activator, single point]",–
CCOC(=O)CSc1nc2c(c(-c3ccc(C)o3)c1C#N)CCCC2,"inconclusive [activator, partial curve]",–
CC(=O)N1CCC(=O)N(C(C)C)c2ccccc21,inactive,–
Cc1ccc2cc(CN(CCCN3CCOCC3)C(=O)NC3CCCCC3)c(=O)[nH]c2c1C,inactive,–
N#Cc1cc2c(nc1SCc1cccnc1)CCCCC2,–,inconclusive: 34.8% [activator]
CCOc1ccc(S(=O)(=O)Nc2ccc(C(=O)NCC(c3ccco3)N(C)C)cc2)cc1 (stereo unspecified),"inconclusive [inhibitor, partial curve]",–
Cc1cc(C)nc(Nc2ccc(O)cc2)n1,inactive,–
Cc1cccc(NS(=O)(=O)c2ccc(C3CCCCC3)cc2)c1,"inconclusive [activator, partial curve, poor fit]",–
Cc1cc(=O)oc2cc(NC(=O)c3ccccc3C(=O)O)ccc12,"inconclusive [activator, partial curve]",–
O=C(OC1Cc2c(O)cc(O)cc2OC1c1cc(O)c(O)c(O)c1-c1c(C2Oc3cc(O)cc(O)c3CC2OC(=O)c2cc(O)c(O)c(O)c2)cc(O)c(O)c1O)c1cc(O)c(O)c(O)c1 (stereo unspecified),inactive,–
Cc1nc2cc(NC(=O)NCCCO)ccc2o1,"inconclusive [inhibitor, partial curve, poor fit]",–
COc1ccc(N2CCN(C(=O)Cn3nnc(-c4cccs4)n3)CC2)cc1,inactive,–
CC(=O)n1cc([C@H]2C=C(C(=O)N3CCOCC3)O[C@@H](OCc3ccc(CO)cc3)C2)c2ccccc21,"inconclusive [activator, partial curve]",–
CCOc1nc2cccc(C(=O)OC(C)OC(=O)OC3CCCCC3)c2n1Cc1ccc(-c2ccccc2-c2nn[nH]n2)cc1 (stereo unspecified),"inconclusive [inhibitor, full curve, poor fit]",–
CCCCN(C)CCNC(=O)c1cc2cc3ccc(OC)cc3nc2o1,"inconclusive [activator, partial curve]",–
Cc1cc2[nH]c(=O)c(=O)[nH]c2cc1S(=O)(=O)Nc1cccc(Cl)c1,"inconclusive [inhibitor, single point]",–
O=C(NC1CCCc2c1cnn2-c1cc(F)cc(F)c1)c1ccncc1 (stereo unspecified),"inconclusive [activator, single point]",–
COc1ccc(N2CCN(C(=O)CSc3nnc4c(C)cc5ccc(C)c(C)c5n34)CC2)cc1,inactive,–

Structure (SMILES),Potency,"activity change, negative = inhibition"
CC12CC3CC(C)(C1)CC(C(=O)NC(=S)N1CCOCC1)(C3)C2,"inconclusive [activator, full curve, poor fit]",–
CCn1ccc(C(=O)Nc2ccccc2Cl)n1,inactive,–
Cc1cc(=O)oc2c3c(cc(OCC(=O)N[C@@H](C)C(=O)O)c12)OC(C)(C)CC3,"inconclusive [activator, single point]",–
Nc1nc(Sc2c([N+](=O)[O-])cc(C(F)(F)F)cc2[N+](=O)[O-])n[nH]1,inactive,–
N#Cc1ccccc1OCC(=O)Nc1ccc2c(c1)OCCCO2,"inconclusive [activator, partial curve]",–
CCN(CC)CC#CCC(O)(c1ccccc1)c1ccc(Br)cc1 (stereo unspecified),"inconclusive [inhibitor, single point]",–
CC12CCCC[C@@H]1CCC1C2CCC2(C)C1CC[C@@]2(O)CNCCO (stereo partly specified),"inconclusive [inhibitor, single point]",–
COC(=O)CN(c1ccc(C)cc1)S(=O)(=O)c1c(C)[nH]c(=O)[nH]c1=O,inactive,–
CCc1ccc(NC(=O)NCc2ccc3c(c2)OCO3)cc1,inactive,–
CCOc1ccc(N(CC(=O)NCC2CCCO2)S(=O)(=O)c2ccc(C)cc2)cc1 (stereo unspecified),"inconclusive [inhibitor, single point]",–
Cc1cc(-c2ccco2)n(-c2ccccc2)n1,inactive,–
COc1ccc(N(C(=O)c2ccco2)S(=O)(=O)c2cc(OC)ccc2OC)cc1,inactive,–
Cc1ccc(N(C)S(=O)(=O)c2csc(C(N)=O)c2)cc1C,"inconclusive [inhibitor, single point]",–
CCOc1ccc(NC(=O)COC(=O)C2CCC(=O)N2)c([N+](=O)[O-])c1 (stereo unspecified),"inconclusive [inhibitor, single point]",–
CC(OC(=O)c1ccccc1NCCO)C(=O)NC1CCCCC1C (stereo unspecified),"inconclusive [activator, partial curve]",–
CN1CCC(N(C)C(=O)CCc2nc3ccccc3c(=O)[nH]2)CC1,"inconclusive [inhibitor, full curve, poor fit]",–
COc1cccc(CN(C)C(=O)c2cc(-c3ccc(F)cc3)nc3ccccc23)c1,"inconclusive [activator, partial curve]",–
CCN(C(=O)COC(=O)CCS(=O)(=O)c1ccc(C)cc1)C1CCS(=O)(=O)C1 (stereo unspecified),inactive,–
C=CCSc1nncn1/N=C/c1ccc(OC)cc1,inactive,–
CNc1ccccc1C(=O)OCC(=O)N1CCN(c2ccc(OC)cc2)CC1,"inconclusive [activator, partial curve]",–
Cc1cc(O)c(CN(C)C)c2c1C(=O)/C(=C/c1ccco1)O2,"inconclusive [inhibitor, single point]",–

Structure (SMILES),Potency,"activity change, negative = inhibition"
CN(C)c1ccnc2sc(C(=O)c3ccccc3)c(N)c12,"inconclusive [activator, partial curve]",–
CC(=O)Nc1ccc(SCC(c2ccccc2)N2CCN(C)CCC2=O)cc1 (stereo unspecified),inactive,–
NC(=O)c1c(NC(=O)COC(=O)CSc2nnc(-c3ccc(Cl)cc3)o2)sc2c1CCC2,inactive,–
Cc1ccc(-c2noc(CSc3nnc(CCc4ccccc4)n3-c3ccccc3)n2)cc1,"inconclusive [activator, partial curve]",–
CC(=O)c1ccc(N=Cc2c(O)n(-c3cc(Cl)ccc3N3CCOCC3)c(=O)c3ccccc23)cc1,inactive,–
COc1cc2ccc(=O)oc2cc1OCC(O)C(C)(C)O (stereo unspecified),"inconclusive [activator, single point]",–
CC(C)OC(=O)c1c(NC(=O)C2CC=CCC2C(=O)O)sc2c1CCCCC2 (stereo unspecified),"inconclusive [activator, single point]",–
COc1ccc(-c2nc(C(=O)NCC3CCCO3)cc3c2[nH]c2ccccc23)cc1 (stereo unspecified),"inconclusive [activator, partial curve]",–
CCC(c1nnnn1C(C)(C)CC)N(CCCN1CCOCC1)Cc1cc2cccc(C)c2[nH]c1=O (stereo unspecified),inactive,–
Cc1cc(C)c(S(=O)(=O)/N=C2/C=C(Sc3ncn[nH]3)C(=O)c3ccccc32)cc1C,inactive,–
CCc1cc(=O)oc2c3c(cc(OCC(=O)N[C@H](C(=O)O)[C@H](C)CC)c12)OC(C)(C)CC3,"inconclusive [activator, single point]",–
NC(=NC(=O)c1ccc(OCC(F)(F)F)nc1)c1ccccc1,"inconclusive [activator, partial curve]",–
CC(C)C[C@H](NC(=O)CNC(=O)[C@H](C)NC(=O)[C@H](CC(C)C)NC(=O)[C@H](CCCNC(=N)N)NC(=O)[C@H](Cc1cnc[nH]1)NC(=O)[C@@H](NC(=O)[C@@H](N)C(C)C)[C@@H](C)O)C(=O)N[C@@H](CC(C)C)C(=O)N[C@@H](CO)C(=O)N[C@@H](CCCNC(=N)N)C(=O)N[C@@H](CO)C(=O)NCC(=O)NCC(=O)N[C@H](C(=O)N[C@H](C(=O)N[C@@H](CCCCN)C(=O)N[C@@H](CC(N)=O)C(=O)N[C@@H](CC(N)=O)C(=O)N[C@@H](Cc1ccccc1)C(=O)N[C@H](C(=O)N1CCC[C@H]1C(=O)N[C@H](C(=O)N[C@@H](CC(N)=O)C(=O)N[C@H](C(=O)NCC(=O)N[C@@H](CO)C(=O)N[C@@H](CCCCN)C(=O)N[C@@H](C)C(=O)N[C@@H](Cc1ccccc1)C(N)=O)C(C)C)[C@@H](C)O)C(C)C)C(C)C)C(C)C,inactive,–
CNC(=S)N(CCO)Cc1cc2cc3c(cc2[nH]c1=O)OCO3,"inconclusive [activator, single point]",–
Cn1nc(-c2ccc(Cl)cc2)c2cc(C(=O)NCCN3CCOCC3)sc21,"inconclusive [inhibitor, partial curve]",–
Cc1ccc(CNC(=O)CN(C(=O)C2(C)CC(=O)N=C3C=CC=CN32)c2ccc(F)cc2)cc1 (stereo unspecified),"inconclusive [activator, single point]",–
COCCn1c(=O)c(-c2ccc(F)c(F)c2)nc2cncnc21,"inconclusive [activator, partial curve, poor fit]",–
CCOc1ccc(C2C3=C(CCCC3=O)N(CC(=O)O)C3=C2C(=O)CCC3)cc1,"inconclusive [activator, partial curve]",–
COc1cccc(C2Nc3ccc4ccccc4c3C3=C2C(=O)CC(C)(C)C3)c1OCC(=O)O (stereo unspecified),"inconclusive [activator, partial curve]",–
